This is an account of results in patent US20160017021A1 (PROTALIX, published 2016).

The experiment has as its target T1, Tumor necrosis factor-alpha (TNFα) (human, UniProt P01375 partial chain).
T1 construct: The same entry stands for both sources; also called TNF-alpha; cachexin
The experiment in a line: sandwich ELISA: TNFα captured on anti-TNFα plate, serial dilutions of BY2 lysate/supernatant, detection with goat anti human IgG Fc HRP. (In general: ELISA stands for enzyme-linked immunosorbent assay.)

T1 sequence (P01375 77-233 limits assumed): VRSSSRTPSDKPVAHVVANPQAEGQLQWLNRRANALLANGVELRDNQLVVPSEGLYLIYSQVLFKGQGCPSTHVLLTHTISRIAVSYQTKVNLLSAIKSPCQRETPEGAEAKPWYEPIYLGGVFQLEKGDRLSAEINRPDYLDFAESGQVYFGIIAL

B1: plant recombinant human (prh) TNFR2:Fc (Fc fusion)
chain: LPAQVAFTPYAPEPGSTCRLREYYDQTAQMCCSKCSPGQHAKVFCTKTSDTVCDSCEDSTYTQLWNWVPECLSCGSRCSSDQVETQACTREQNRICTCRPGWYCALSKQEGCRLCAPLRKCRPGFGVARPGTETSDVVCKPCAPGTFSNTTSSTDICRPHQICNVVAIPGNASMDAVCTSTSPTRSMAPGAVHLPQPVSTRSQHTQPTPEPSTAPSTSFLLPMGPSPPAEGSTGD[letters of human IgG1 Fc and a few adjoining residues omitted]
notes: Expressed in N. tabacum BY2 cells; also called PRX-106; PRX106
As for B1, the binding result was “binds”.
